# According to the supplement of paper PMC7826260:
# The other results are listed elsewhere or left out. The data describe in vitro nicking of single-stranded DNA by Rep domains (1 h at 37 °C, 3 µM enzyme); the outer parts of the 90-letter strands are left off. A value is the log2 ratio of uncut reads to the pool without enzyme; strong cutting gives strongly negative numbers. There is no active / inactive call. Because reads are shares of a total, they shift together; where an enzyme cuts many sequences, the uncut ones exceed 0.
# Tests used:
# Experiment in all cases: uncleaved DNA left, log2 of reads against the no-enzyme library (log2 ratio); higher = less cleavage (more negative = more Rep cleavage of the k-mer); sequences stand for … in CTCGTCCG…ACCGGAGA
# [1] = system: T1, Rep nickase domain of Muscovy duck circovirus
# T1 sequence (protein, residues 1-111, tag omitted): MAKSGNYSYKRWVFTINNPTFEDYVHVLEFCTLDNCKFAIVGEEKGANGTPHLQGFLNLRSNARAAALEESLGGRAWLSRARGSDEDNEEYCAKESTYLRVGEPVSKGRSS
# Protocol: (§1)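 A pool of 90-nt single-stranded DNAs with seven random bases just before the constant AC of the nick site (name = the seven bases) was cut by 3 µM recombinant His6-SUMO-tagged Rep nickase domain (300 nM DNA, 50 mM HEPES pH 8.0, 50 mM NaCl, 1 mM MnCl2, 1 h, 37 °C, three replicates). Uncut DNA was amplified and sequenced.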
# [2] = system: T2, Rep nickase domain of banana bunchy top virus
# T2 sequence (protein, residues 1-94, tag omitted): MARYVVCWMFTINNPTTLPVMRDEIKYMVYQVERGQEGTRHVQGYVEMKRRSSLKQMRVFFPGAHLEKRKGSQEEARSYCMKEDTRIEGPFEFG
# Protocol: as §1
# [3] = system: T3, Rep nickase domain of cabbage leaf curl virus
# T3 sequence (protein, residues 1-116, tag omitted): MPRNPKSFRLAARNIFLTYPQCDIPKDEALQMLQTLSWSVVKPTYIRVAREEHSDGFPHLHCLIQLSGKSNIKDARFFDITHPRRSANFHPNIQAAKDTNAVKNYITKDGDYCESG
# Protocol: as §1
# [4] = system: T4, Rep nickase domain of chickpea chlorotic dwarf virus
# T4 sequence (protein, residues 1-124, tag omitted): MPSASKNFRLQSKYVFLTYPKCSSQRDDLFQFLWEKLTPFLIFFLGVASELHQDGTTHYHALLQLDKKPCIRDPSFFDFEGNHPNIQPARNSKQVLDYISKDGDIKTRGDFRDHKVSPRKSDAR
# Protocol: as §1
# [5] = system: T5, Rep nickase domain of faba bean necrotic yellows virus
# T5 sequence (protein, residues 1-98, tag omitted): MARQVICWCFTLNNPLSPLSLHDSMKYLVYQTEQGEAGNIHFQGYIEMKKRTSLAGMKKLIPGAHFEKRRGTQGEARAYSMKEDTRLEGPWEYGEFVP
# Protocol: as §1
# [6] = system: T6, Rep nickase domain of maize striate mosaic virus
# T6 sequence (protein, residues 1-117, tag omitted): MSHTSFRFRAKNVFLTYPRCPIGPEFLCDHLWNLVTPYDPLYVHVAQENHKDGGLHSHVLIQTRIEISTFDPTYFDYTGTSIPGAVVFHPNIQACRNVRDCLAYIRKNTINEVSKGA
# Protocol: as §1
# [7] = system: T7, Rep nickase domain of porcine circovirus 2
# T7 sequence (protein, residues 2-116, tag omitted): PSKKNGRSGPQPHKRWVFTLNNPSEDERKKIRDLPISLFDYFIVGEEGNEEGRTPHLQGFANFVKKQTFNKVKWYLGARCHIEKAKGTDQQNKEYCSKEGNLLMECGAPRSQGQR
# Protocol: as §1
# [8] = system: T8, Rep nickase domain of tomato golden mosaic virus
# T8 sequence (protein, residues 1-124, tag omitted): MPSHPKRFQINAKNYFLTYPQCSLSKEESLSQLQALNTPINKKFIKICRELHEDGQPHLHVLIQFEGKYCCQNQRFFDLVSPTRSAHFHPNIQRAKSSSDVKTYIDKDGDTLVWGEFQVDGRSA
# Protocol: as §1
# [9] = system: T9, Rep nickase domain of tomato yellow leaf curl virus
# T9 sequence (protein, residues 1-136, tag omitted): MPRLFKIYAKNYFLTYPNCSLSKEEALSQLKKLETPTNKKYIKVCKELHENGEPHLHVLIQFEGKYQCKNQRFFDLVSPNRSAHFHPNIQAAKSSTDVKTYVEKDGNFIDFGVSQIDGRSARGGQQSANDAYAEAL
# Protocol: as §1
# [10] = system: T10, Rep nickase domain of wheat dwarf virus
# T10 sequence (protein, residues 1-137, tag omitted): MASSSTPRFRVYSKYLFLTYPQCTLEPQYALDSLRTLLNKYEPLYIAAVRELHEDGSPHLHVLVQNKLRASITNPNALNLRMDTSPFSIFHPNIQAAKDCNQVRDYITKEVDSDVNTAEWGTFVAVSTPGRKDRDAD
# Protocol: as §1
Sequence,uncleaved DNA left (log2) [1],uncleaved DNA left (log2) [2],uncleaved DNA left (log2) [3],uncleaved DNA left (log2) [4],uncleaved DNA left (log2) [5],uncleaved DNA left (log2) [6],uncleaved DNA left (log2) [7],uncleaved DNA left (log2) [8],uncleaved DNA left (log2) [9],uncleaved DNA left (log2) [10]
TGTCATG,-0.12,-0.0695,-0.341,-0.511,-0.0683,-0.881,-0.0643,-0.158,-0.146,0.0374
AGTGGAA,0.19,0.0782,0.449,1.2,0.0231,1.42,-0.0606,0.0744,0.0385,0.171
CCTAGTG,0.0624,-0.0176,-0.635,-0.632,0.0901,-0.95,0.144,-0.035,0.0338,-0.123
TTTTCTG,-0.0579,-0.211,-0.22,-0.279,0.00235,-0.348,-0.0775,-0.0928,-0.0672,-0.0402
TGCGGAG,0.0451,-0.0363,-0.301,-0.325,-0.0922,-0.681,0.0273,0.0115,0.00885,-0.0673
AACGTCA,-0.0845,0.0321,-0.022,-1.68,0.0645,-0.338,-0.156,-0.0252,0.0274,0.0139
GGGCATC,-0.096,0.00356,0.86,1.92,-0.0762,2.23,0.143,-0.0971,-0.0466,0.116
TTGCTAG,0.0398,-0.0543,-0.825,-0.133,0.0168,-0.96,0.187,0.029,0.102,0.0232
GCAAGCT,-0.0857,0.134,0.242,0.883,0.0599,0.787,0.1,0.0577,0.0193,0.0394
TATGAAT,-0.223,-0.01,-0.404,-1.64,0.0357,0.207,-0.329,-0.075,-0.151,-0.166
CTCGTTC,-0.0317,0.0271,-0.00938,-0.649,-0.0434,-0.628,-0.0277,-0.115,0.0775,-0.0543
ATAGGCA,0.0708,0.0546,0.0424,0.0395,0.131,-0.619,0.0671,0.104,0.0605,0.0406
TGGGCCT,0.00367,0.0582,0.693,1.53,0.0584,2.02,0.0398,-0.0834,0.000365,0.116
TTCGTAG,-0.0309,-0.115,-0.529,-0.739,-0.087,-1.45,0.0357,-0.0405,-0.025,-0.229
AACGTAC,0.0648,-0.036,-0.204,-0.238,0.17,-0.761,0.0477,-0.0178,-0.0088,0.0371
GATACAC,0.0402,0.0381,0.149,0.556,0.000739,0.104,0.0574,0.0245,-0.0112,0.119
TTCTTGC,-0.0896,-0.169,-0.863,-0.407,-0.0206,-1.25,0.0492,-0.189,-0.0707,-0.213
CGGCTGT,0.00461,0.0654,-0.06,0.518,-0.0553,1.66,0.0809,-0.0236,-0.0896,0.065
TCTTGGC,0.0643,-0.0838,-0.277,-0.618,-0.0881,-1.22,0.0696,-0.0766,-0.112,-0.171
GATGTCG,0.0351,-0.0514,-0.649,0.0782,0.000175,-0.682,0.0552,-0.0874,-0.0335,-0.0909

Sequence,uncleaved DNA left (log2) [1],uncleaved DNA left (log2) [2],uncleaved DNA left (log2) [3],uncleaved DNA left (log2) [4],uncleaved DNA left (log2) [5],uncleaved DNA left (log2) [6],uncleaved DNA left (log2) [7],uncleaved DNA left (log2) [8],uncleaved DNA left (log2) [9],uncleaved DNA left (log2) [10]
CATCATA,-0.0057,-0.108,-0.0725,-2.09,-0.0481,-0.75,-0.0554,-0.0963,-0.0859,0.0109
TAGCCCA,-0.0997,-0.0624,-0.223,-2.33,-0.0632,-0.15,-1.56,-0.0421,0.0772,-0.122
CTAAAAG,0.00561,0.149,-0.678,-0.296,0.194,-1.07,0.248,-0.00602,0.111,0.107
TCAATTT,-0.0985,-0.0978,-0.27,-2.67,-0.0227,-0.682,-0.362,-0.0883,-0.0852,-0.0759
TGCTCAG,0.222,0.0966,-0.417,-0.523,0.139,-0.929,0.0757,0.01,0.205,-0.00446
TTCGAGG,0.0731,-0.021,0.508,1.26,0.0661,1.75,0.00779,0.0456,-0.00804,0.0718
CTGCGAT,0.0764,-0.106,-0.301,-0.194,0.0612,-0.656,0.0675,-0.0331,-0.14,-0.157
TCACTGC,-0.0494,-0.0617,-0.418,-0.546,-0.073,-0.892,0.0148,-0.0536,-0.0694,-0.137
CACGCTG,-0.0816,-0.175,0.236,1.32,-0.127,1.5,0.0227,-0.00212,-0.317,-0.0847
AGTAAAG,0.122,0.0745,-0.603,-0.424,0.092,-0.916,0.242,0.153,0.153,0.00319
GTGCAGT,0.0815,0.00783,0.145,0.817,-0.205,0.333,0.00969,-0.0635,0.0903,-0.0992
TAATACA,-2.23,0.094,-2.77,-3.21,-0.0691,-2,-3.21,-2.05,-0.0812,-2.97
TACCAAT,0.00755,0.0694,-0.233,-2.55,-0.0534,-0.535,-2.28,-0.146,0.0337,0.0844
GGGATAT,-0.1,0.0675,0.788,2.04,-0.129,2.2,0.142,0.00598,-0.17,0.0928
CTATCAC,-0.131,-0.0032,-0.0734,-0.46,-0.159,-0.77,0.0353,-0.268,-0.0511,0.00088
TAACGTC,0.0469,-0.148,-1.15,-2.82,-0.0706,-0.849,-0.102,-0.158,-0.0599,-0.235
TAGATTG,-0.0132,-0.0777,-0.0171,0.657,-0.0665,0.936,-0.0711,0.0409,0.0184,0.0338
CAAGTCG,0.159,0.0806,-0.706,7.28e-05,0.0374,-1,0.279,0.0418,0.11,0.0165
CCGCTCC,0.0505,0.00658,0.169,0.119,0.051,0.573,0.0499,-0.0943,-0.0314,-0.161
TAGACTC,0.113,0.00566,0.0402,0.367,0.0475,0.992,-0.511,-0.0638,0.0111,0.0683

Sequence,uncleaved DNA left (log2) [1],uncleaved DNA left (log2) [2],uncleaved DNA left (log2) [3],uncleaved DNA left (log2) [4],uncleaved DNA left (log2) [5],uncleaved DNA left (log2) [6],uncleaved DNA left (log2) [7],uncleaved DNA left (log2) [8],uncleaved DNA left (log2) [9],uncleaved DNA left (log2) [10]
CCATACC,-0.125,-0.0186,-0.0691,-1.23,0.0143,-0.729,-0.732,0.0369,-0.0447,0.0427
AAGACAG,-0.0436,0.0528,-0.0734,0.366,0.0322,0.374,0.117,-0.0134,-0.0755,0.12
GAGGCAT,-0.0104,0.1,0.814,2.11,-0.123,2.19,0.141,-0.101,-0.00157,0.156
CCACCGA,0.00202,-0.0948,-0.458,-0.62,0.0123,-0.878,0.0914,-0.115,-0.176,-0.157
ACGATGA,-0.0442,-0.0101,-0.0118,0.24,-0.0215,-0.34,0.0577,0.17,-0.0209,0.000669
GCTAAGA,0.0254,0.0129,0.0646,0.337,0.0538,-0.518,0.148,0.0447,0.0969,0.0839
GAGGGAC,-0.00254,0.0588,0.728,1.85,-0.0785,2.14,0.262,0.0511,0.108,0.159
GCACGAA,-0.00116,-0.00428,-0.157,0.162,-0.0416,-0.469,0.0285,0.0483,0.0218,-0.1
TTCAAAC,0.0371,0.00841,0.306,0.0324,0.0433,-0.203,0.0556,0.0771,0.0054,0.0895
GTTCTCC,0.0195,-0.0202,0.257,0.689,-0.0243,1.58,0.0573,0.0327,0.00319,0.104
TACGCTT,0.0523,-0.133,-2.7,-2.75,-0.0842,-0.788,-1.97,-0.251,0.0528,-0.395
GGTCACA,-0.0121,0.104,0.614,1.27,0.000409,1.96,0.179,-0.0121,0.19,0.147
TTGGGCG,-0.00306,-0.0794,-0.694,0.49,0.0454,-0.737,0.115,-0.0558,-0.00645,-0.168
AGTAGAC,0.00374,-0.0193,0.142,0.772,0.0385,0.943,0.0626,0.0526,-0.103,0.0675
TTGGACA,0.115,0.256,0.847,1.78,0.00364,2.05,0.322,0.0781,0.142,0.233
AAGTGAC,0.0727,-0.02,0.195,0.677,-0.104,0.68,0.0469,0.0226,0.00549,0.0747
GGAGTGC,0.00907,0.0046,0.377,0.921,-0.113,0.618,0.0867,-0.0704,-0.0172,0.0597
CGGGGCC,-0.208,-0.15,0.535,1.18,-0.184,1.71,0.00139,-0.27,-0.23,-0.0782
GCGACCG,0.0124,-0.0207,-0.155,0.049,-0.0368,-0.357,0.0003,0.0558,-0.0595,-0.0826
TGAACGT,0.132,0.178,0.158,0.151,0.123,-0.0955,0.214,-0.00978,0.225,0.219
